# Screen size: about 390,000 compounds; about 2,200 (0.56%) were called active. Inconclusive results, whose numbers are uncertain, are shown with a selection of clear calls. Calls follow the shape of the dose curve; as a rule, active = well fitted inhibition curve with a large enough effect; inconclusive = small, poorly fitted or top-dose-only effect; inactive = no such curve, though single readings can be large or run the other way. Where the call is inconclusive, the potency comes from a doubtful curve fit.
# Target: Chromobox protein homolog 1 (Homo sapiens) (UniProt P83916)
# UniProt P83916, sequence (P83916 whole entry, looked up): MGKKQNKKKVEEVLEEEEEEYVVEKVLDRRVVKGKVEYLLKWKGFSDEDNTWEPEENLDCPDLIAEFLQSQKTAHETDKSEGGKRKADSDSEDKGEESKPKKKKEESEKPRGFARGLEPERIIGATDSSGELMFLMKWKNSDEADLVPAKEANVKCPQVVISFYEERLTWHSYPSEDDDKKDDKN
# Assay: HTS for Inhibitors of HP1-beta Chromodomain Interactions with Methylated Histone Tails; also: nearly all actives have a fitted effect of over 70% in size
# Conditions: AlphaScreen HP1-beta / biotin-H3K9me3 peptide binding; series mostly up to 114 µM
# Summary of the method: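 HP1-beta protein (50 nM final) preincubated 30 min at room temperature with biotinylated H3(1-18)K9me3 peptide (50 nM) in PBS pH 7.4, 0.01% Tween-20, then compound added for 30 min. AlphaScreen streptavidin donor/nickel chelate acceptor beads (10 ug/mL final), 30 min dark, luminescence read.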
# Potency is read from the fitted curve at half-maximal effect; tags tell the direction and shape of the fitted curve.
row,Compound,Potency
1,COc1ccc(NC2CCCN(C(=O)CCN3CCCO3)C2)cc1 (stereo not given),inactive
2,Cc1cccc(-c2cc3c(nn2)-c2ccccc2C3=O)c1,"inconclusive: 39.8 µM [inhibitor, single point]"
3,Cc1ccc(Cl)cc1NC(=O)c1oc2ccc(S(=O)(=O)N3CCC4(CC3)OCCO4)cc2c1C,inactive
4,C=CCc1cc(C)ccc1OCCCn1ccnc1,"inconclusive: 17.8 µM [inhibitor, full curve]"
5,Brc1ccc(N/N=C(/N=Nc2nn[nH]n2)c2ccccc2)cc1,active: 12.6 µM
6,Cc1oc(-c2ccc(C(=O)Nc3ccc(F)cc3)cc2)nc1COc1ccccc1,inactive
7,O=C(Nc1ccc(N2CCCCC2)cc1)c1ccccn1,"inconclusive: 79.4 µM [inhibitor, single point]"
8,Nc1ccc2c(c1)C(=O)c1ccc(N)cc1-2,"inconclusive: 56.2 µM [inhibitor, partial curve, poor fit]"
9,Cc1cc(C(=O)COC(=O)/C=C/c2ccco2)c(C)n1C,"inconclusive: 70.8 µM [inhibitor, partial curve, poor fit]"
10,C(=N\NC1=Nc2cccc3cccc1c23)/c1ccccn1,inactive
11,COc1ccc(OCC(=O)NC(=S)NNC(=O)COc2ccc(Br)cc2Cl)cc1,"inconclusive: 50.1 µM [inhibitor, partial curve, poor fit]"
12,CCOC(=O)c1c(NC(=O)C2=C(C)NC(=S)NC2c2ccc(C)cc2)sc(C)c1C (stereo not given),"inconclusive: 28.2 µM [inhibitor, partial curve]"
13,COc1ccc(NC2CCN(C3CC(=O)N(c4ccc(F)c(Cl)c4)C3=O)CC2)cc1 (stereo not given),"inconclusive: 56.2 µM [inhibitor, single point]"
14,CNC(=S)N/N=C/c1cc(Br)cc(Br)c1O,"inconclusive: 25.1 µM [inhibitor, single point]"
15,CCN(CC(=O)Nc1cc(Cl)ccc1OC)CC(=O)NC1CCS(=O)(=O)C1 (stereo not given),"inconclusive: 15.8 µM [inhibitor, partial curve, poor fit]"
16,Cc1cccc(CS(=O)(=O)c2ncc(Cl)c(C(=O)Nc3nnc(C(C)C)s3)n2)c1,inactive
17,O=C(CN1CCN(c2ccc(O)cc2)CC1)NC(=O)NCc1ccco1,"inconclusive: 89.1 µM [inhibitor, single point]"
18,Nc1c(Cl)cc(N=Nc2ccccc2)cc1Cl,"inconclusive: 11.2 µM [inhibitor, full curve]"
19,CC(NCc1ccc(F)cc1)C(=O)NC1CCCCC1 (stereo not given),"inconclusive: 39.8 µM [inhibitor, partial curve]"
20,C/C(=N\NC(=S)NC(C)C)c1cccc([N+](=O)[O-])c1,"inconclusive: 44.7 µM [inhibitor, partial curve]"
21,O=C(Cn1nc(-c2ccc(Cl)cc2)c2ccccc2c1=O)NCC1CCCO1 (stereo not given),"inconclusive: 5.01 µM [inhibitor, full curve, poor fit]"
22,COc1ccc(-c2ocnc2C(=O)Nc2ccc(N3CCOCC3)cc2N2CCOCC2)cc1OC,"inconclusive: 56.2 µM [inhibitor, single point]"
23,Cc1cccc(N2CCN(C(=O)CSc3ccsc3[N+](=O)[O-])CC2C)c1 (stereo not given),inactive
24,Cc1nccn1CC(O)COC1CCCCC1 (stereo not given),"inconclusive: 56.2 µM [inhibitor, partial curve]"

row,Compound,Potency
1,Clc1ccccc1-c1nnc2sc(-c3ccc4c(c3)OCO4)nn12,"inconclusive: 11.2 µM [inhibitor, partial curve]"
2,Cc1cccc(N2CCN(C(=O)CS(=O)(=O)c3cccc4nsnc34)CC2)c1C,inactive
3,O=C(COC(=O)CCc1c[nH]c2ccccc12)NC(c1ccccc1)c1ccccc1,"inconclusive: 12.6 µM [inhibitor, partial curve, poor fit]"
4,COc1ccc(CCNC(=O)CSc2ccsc2[N+](=O)[O-])cc1OC,inactive
5,CC(C)c1ccc(OCC(=O)NCCO)cc1,"inconclusive: 39.8 µM [inhibitor, single point]"
6,CC(=O)N1N=C(c2cccc([N+](=O)[O-])c2)OC1c1ccccc1Cl (stereo not given),"inconclusive: 28.2 µM [inhibitor, single point]"
7,CCOC(=O)c1c(-c2ccc(C)cc2)csc1NC(=O)c1cc(=O)c2cc(C)ccc2o1,"inconclusive: 12.6 µM [inhibitor, full curve, poor fit]"
8,O=C(O)C1=NN(c2ccccc2)C(=O)C1,"inconclusive: 22.4 µM [inhibitor, single point]"
9,C=CCn1cccc(/C=C/C(=O)c2ccc(C(C)(C)C)cc2)c1=S,"inconclusive: 35.5 µM [inhibitor, partial curve]"
10,COc1cc(C(=O)Nc2ccc(NC(=O)c3ccc(C(C)(C)C)cc3)cc2)cc(OC)c1OC,inactive
11,O=C(NNC(=O)c1ccc(NC(=O)c2ccccc2)cc1)c1ccc(F)cc1,inactive
12,c1ccc(CCCN2CCOCC2)cc1,"inconclusive: 44.7 µM [inhibitor, partial curve]"
13,C=CCOc1ccccc1CN1CCSCC1,"inconclusive: 56.2 µM [inhibitor, single point]"
14,Cc1sc(NC(=O)CCS(=O)(=O)c2ccccc2)c(C#N)c1C,"inconclusive: 22.4 µM [inhibitor, partial curve]"
15,CCOc1cc(-c2sc(Nc3ccccc3)n[n+]2C)ccc1OC,inactive
16,CCOC(=O)c1ccccc1NC(=O)CN1C(=O)c2ccccc2S1(=O)=O,inactive
17,O=C(c1cccs1)N1CCN(C2CCCCC2)CC1,"inconclusive: 20 µM [inhibitor, full curve]"
18,c1ccc(Nc2cccc(Nc3ccccc3)n2)cc1,"inconclusive: 1.26 µM [inhibitor, full curve, poor fit]"
19,Cc1cc(C)c(C)c(OCCCCN(C)Cc2ccccc2)c1,"inconclusive: 15.8 µM [inhibitor, full curve]"
20,Cc1ccc(-c2onc(C)c2C)cc1S(=O)(=O)NCc1ccc(N(C)C)cc1,"inconclusive: 44.7 µM [inhibitor, partial curve]"
21,CSC1=NC(C)(C)C=C(/C=C/c2ccc(Cl)cc2)N1,"inconclusive: 11.2 µM [inhibitor, partial curve]"
22,COc1ccccc1C(=O)NCCNC(=O)c1ccco1,"inconclusive: 39.8 µM [inhibitor, single point]"
23,O=C(CCCN1C(=O)/C(=C\c2ccccc2)SC1=S)N1CCOCC1,"inconclusive: 56.2 µM [inhibitor, single point]"
24,N#Cc1nc(Cc2ccccc2)oc1N1CCN(c2cccc(Cl)c2)CC1,"inconclusive: 15.8 µM [inhibitor, partial curve, poor fit]"

row,Compound,Potency
1,O=[N+]([O-])c1ccc(NNC(=S)Nc2ccccc2)cc1,active: 56.2 µM
2,c1csc(-c2nn3c(Cn4cnc5ccccc54)nnc3s2)c1,"inconclusive: 10 µM [inhibitor, full curve, poor fit]"
3,COc1ccc(CCn2c(=S)[nH]c(=O)c3c(C)cc(C)nc32)cc1OC,inactive
4,O=C(O)Cn1nc(-c2ccc(F)cc2)oc1=O,"inconclusive: 39.8 µM [inhibitor, single point]"
5,Cc1cc(C)c(C(=O)c2cccs2)c(C)c1,inactive
6,CCOc1ccc(C2=NC(c3cccs3)=Nc3ccc(CC)cc3N2)cc1OCC,"inconclusive: 11.2 µM [inhibitor, full curve, poor fit]"
7,CCN1CCN(c2ccc(S(=O)(=O)N3CCCCC3)cc2NC(=O)c2cccc(C)c2)CC1,inactive
8,CSc1ccccc1C(=O)N(C)C(c1ccccc1)c1ccccc1,inactive
9,CNCCc1ccccn1,"inconclusive: 70.8 µM [inhibitor, partial curve]"
10,CCN1CCN(CCOc2cccc(Oc3ccccc3)c2)CC1,"inconclusive: 14.1 µM [inhibitor, full curve, poor fit]"
11,COc1cc(CNC2CCCCC2OC)cc(OC)c1OC (stereo not given),"inconclusive: 39.8 µM [inhibitor, partial curve, poor fit]"
12,COc1ccccc1NC(=O)C1=C(C)Nc2nc(SCc3ccccc3)nn2C1c1cccc(O)c1 (stereo not given),inactive
13,CCC(C)NC(=O)CSc1nnc(-c2cc(-c3cccs3)nc3ccccc23)o1 (stereo not given),inactive
14,COc1ccccc1CNC(=O)c1ccc2[nH]c(C)c(C)c2c1,"inconclusive: 50.1 µM [inhibitor, partial curve, poor fit]"
15,CCN1/C(=C/c2ccc3cc(C)ccc3[n+]2CC)Sc2ccc3sccc3c21,"inconclusive: 20 µM [inhibitor, full curve]"
16,COc1ccc(OCC(O)CN2CCCCCC2)cc1 (stereo not given),"inconclusive: 56.2 µM [inhibitor, partial curve, poor fit]"
17,COc1ccc(OC)c(-c2cc(C3CCN(c4ncccc4[N+](=O)[O-])CC3)[nH]n2)c1,"inconclusive: 70.8 µM [inhibitor, single point]"
18,FC(F)(F)c1cccc(NC(=S)Nc2cccc(NC(=S)Nc3cccc(C(F)(F)F)c3)n2)c1,"inconclusive: 39.8 µM [inhibitor, partial curve]"
19,CCN(CC)CCOc1ccccc1C(C)=O,"inconclusive: 17.8 µM [inhibitor, partial curve]"
20,CCOC(=O)C1CCN(C(=O)C2CCCN(S(=O)(=O)c3ccc(OCC)c(Cl)c3)C2)CC1 (stereo not given),inactive
21,CCOC(=O)N1CCC(N2Cc3cccc(C(=O)NCC4CCN(CC(C)C)C4)c3C2=O)CC1 (stereo not given),inactive
22,COc1ccc(/C=C2/SC(=S)N(NS(=O)(=O)c3ccc(C)cc3)C2=O)cc1,"inconclusive: 50.1 µM [inhibitor, partial curve]"

# — PubChem BioAssay AID540317 (National Center for Advancing Translational Sciences (NCATS), 2011)
